# Experimental data published in the supplement of paper PMC12217912.
# The list shows a part of the results. Sequences were assembled here from the parent chain. Inactive controls read about 0.05.
# B1: TEV protease; numbered along this chain (parent)
# chain: MGESLFKGPRDYNPISSSICHLTNESDGHTTSLYGIGFGPFIITNKHLFRRNNGTLVVQSLHGVFKVKDTTTLQQHLVDGRDMIIIRMPKDFPPFPQKLKFREPQREERICLVTTNFQTKSMSSMVSDTSCTFPSGDGIFWKHWIQTKDGQCGSPLVSTRDGFIVGIHSASNFTNTNNYFTSVPKNFMELLTNQEAQQWVSGWRLNADSVLWGGHKVFMVKPEEPFQPVKEATQL
# Variants of: B1
# Experiment: raw area under fraction-flipped curve 0-4 h after induction (AUC4h, not background-subtracted), DNA-recorder readout of cleavage of the substrate (dimensionless); higher = more cleavage of the substrate by the protease variant
# Conditions: temperature: 34 °C; time window: 0-4 h after rhamnose induction
# Protocol: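 In vivo DNA recorder in E. coli TOP10(DE3) ΔrhaA at 34 °C. Each TEVp single-site mutant (parent TEVp 0) is paired with a single-site variant of the 7-mer TEVs (canonical ENLYFQ|S). The substrate sits between flexible linkers in a Bxb1-sfGFP-TEVs-SsrA fusion, so cleavage stabilises Bxb1 and speeds flipping of a recombination array, read by NGS. The value is the raw area under the fraction-flipped curve over 0-4 h after rhamnose induction (AUC4h), with ≥20 reads per time point. It is not background-subtracted; inactive controls average about 0.047.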
# 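Further: Bxb1 expression induced with 0.2% (w/v) L-rhamnose at OD600 near 0.5, cultures sampled hourly, flipped fraction per protease–substrate barcode pair counted by paired-end Illumina sequencing.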
Variant,area with substrate ENDYFQS,area with substrate ENIYFQS,area with substrate ENKYFQS,area with substrate ENRYFQS,area with substrate ENTYFQS,area with substrate ENVYFQS,area with substrate ENEYFQS,area with substrate ENMYFQS,area with substrate ENNYFQS,area with substrate ENQYFQS
MGESLFKGPRDYNPISSSICHLTNESDGHTTSLYGIGFGPFIITNKHLFRRNNGTLVVQSLHGVFKVKDTTTLQQHLVDGRDPIIIRMPKDFPPFPQKLKFREPQREERICLVTTNFQTKSMSSMVSDTSCTFPSGDGIFWKHWIQTKDGQCGSPLVSTRDGFIVGIHSASNFTNTNNYFTSVPKNFMELLTNQEAQQWVSGWRLNADSVLWGGHKVFMVKPEEPFQPVKEATQL [M83P],0.0609,0.0754,0.0596,0.0529,0.0538,0.0386,–,–,–,–
MGESLFKGPRDYNPISSSICHLTNESDGHTTSLYGIGFGPFIITNKHLFRRNNGTLVVQSLHGVFKVKDTTTLQQHLVDGRDMIIIRMPKDFPPFPQKLKFREPQREERICLVTTNFQTKSMSSMVSDTSCTFKSGDGIFWKHWIQTKDGQCGSPLVSTRDGFIVGIHSASNFTNTNNYFTSVPKNFMELLTNQEAQQWVSGWRLNADSVLWGGHKVFMVKPEEPFQPVKEATQL [P134K],0.0618,0.0999,0.0601,–,0.082,0.0478,0.0591,0.0059,0.0485,0.0667
MGESLFKGPRDYNPISSSICHLTNESDGHTTSLYGIGFGPFIITNKHLFRRNNGTLVVQSLHGVFKVKDTTTLQQHLVDGRDMIIIRMPKDFPPFPQKLKFREPQREERICLVTTNFQTKSMSSMVSDTSCTFPSGDGIFWKHWIQTKDGQCGSPLVSTRPGFIVGIHSASNFTNTNNYFTSVPKNFMELLTNQEAQQWVSGWRLNADSVLWGGHKVFMVKPEEPFQPVKEATQL [D161P],0.0604,–,–,–,–,–,0.0524,–,–,0.0317
MGESLFKGPRDYNPISSSICHLTNESDGHTTSLYGIGFGPFIITNKHLFRRNNGTLVVQSLHGVFKVKDTTTLQQHLVDGRDMIIIRMPKDFPPFPQKLKFREPQREERICLVTTNDQTKSMSSMVSDTSCTFPSGDGIFWKHWIQTKDGQCGSPLVSTRDGFIVGIHSASNFTNTNNYFTSVPKNFMELLTNQEAQQWVSGWRLNADSVLWGGHKVFMVKPEEPFQPVKEATQL [F117D],0.061,–,0.0497,0.0598,–,0.0777,0.0496,0.0758,–,0.0522
MGESLFKGPRDYNPISSSICHLTNESDGHTTSLYGIGFGPFIITNKHLFRRNNGTLVVQSLHGVFKVKDTTTLQQHLVDGRDMIIIRMPKDFPPFPQKLKFREPQREERICLVTTNFQTKSMSSMVSDTSCTFPSGDGIFWKHWIQTKDGQCGSPLVSTRDGFIVGIHSASNFTNTNNYFTSVPKKFMELLTNQEAQQWVSGWRLNADSVLWGGHKVFMVKPEEPFQPVKEATQL [N186K],0.0799,–,–,0.0578,–,0.056,0.049,–,–,0.0614
MGESLFKGPRDYNPISSSICHLTNESDGHTTSLYGIGFGPFIITNKHLFRRNNGTLVVQSLHGVFKVKDTTTLQQHLVDGRDMIIIRMPKDFPPFPQKLKFREPQREERICLVTTNFQTKSMSSMVSPTSCTFPSGDGIFWKHWIQTKDGQCGSPLVSTRDGFIVGIHSASNFTNTNNYFTSVPKNFMELLTNQEAQQWVSGWRLNADSVLWGGHKVFMVKPEEPFQPVKEATQL [D128P],0.0601,0.108,0.0607,0.0435,–,–,–,0.11,–,0.0547
MGESLFKGPRDYNPISSSICHLTNESDGHTTSLYGIGFGPFIITNKHLFRRNNGTLVVQSLHGVFKVKDTTTLQQHLVDGRDMIIIRMPKDFPPFPQKLKFREPQREERICLVTTNFQTKSMSSMVSDTSCTFPSGDGIFWKTWIQTKDGQCGSPLVSTRDGFIVGIHSASNFTNTNNYFTSVPKNFMELLTNQEAQQWVSGWRLNADSVLWGGHKVFMVKPEEPFQPVKEATQL [H143T],0.0517,–,–,0.0693,0.0653,–,0.0615,0.0921,0.0614,0.0618
MGESLFKGPRDYNPISSSICHLTNESDGHTTSLYGIGFGPFIITNKHLFRRNNGTLVVQSLHGVFKVKDTTTLQQHLVDGRDMIIIRSPKDFPPFPQKLKFREPQREERICLVTTNFQTKSMSSMVSDTSCTFPSGDGIFWKHWIQTKDGQCGSPLVSTRDGFIVGIHSASNFTNTNNYFTSVPKNFMELLTNQEAQQWVSGWRLNADSVLWGGHKVFMVKPEEPFQPVKEATQL [M88S],0.0552,–,0.066,0.0576,–,–,–,–,0.0495,0.0555
MGESLFKGPRDYNPISSSICHLTNESDGHTTSLYGIGFGPFIITNKHLFRRNNGTLVVQSLHGVFKVKDTTTLQQHLVDGRDMIIIKMPKDFPPFPQKLKFREPQREERICLVTTNFQTKSMSSMVSDTSCTFPSGDGIFWKHWIQTKDGQCGSPLVSTRDGFIVGIHSASNFTNTNNYFTSVPKNFMELLTNQEAQQWVSGWRLNADSVLWGGHKVFMVKPEEPFQPVKEATQL [R87K],0.058,–,–,–,–,–,–,–,0.0528,0.0577
MGESLFKGPRDYNPISSSICHLTNESDGHTTSLYGIGFGPFIITNKHLFRRNNGTLVVQSLHGVFKVKDTTTLQQHLVDGRDMIIIRMPKDFPPFPQKLKFREPQREERICLVTTNFQTKSMSSMVSDTSCTFPSGDGIFWKHWIQTKDGQCGSPLVSTRDGFIVGIHSMSNFTNTNNYFTSVPKNFMELLTNQEAQQWVSGWRLNADSVLWGGHKVFMVKPEEPFQPVKEATQL [A170M],0.0243,–,0.0561,0.0699,–,–,–,–,0.0613,–
MGESLFKGPRDYNPISSSICHLTNESDGHTTSLYGIGFGPFIITNKHLFRRNNGTLVVQSLHGVFKVKDTTTLQQHLVDGRDMIIIRMPKDFPPFPQKLKYREPQREERICLVTTNFQTKSMSSMVSDTSCTFPSGDGIFWKHWIQTKDGQCGSPLVSTRDGFIVGIHSASNFTNTNNYFTSVPKNFMELLTNQEAQQWVSGWRLNADSVLWGGHKVFMVKPEEPFQPVKEATQL [F101Y],0.0456,–,–,–,–,–,–,–,0.0579,–

# Same assay, conditions: temperature: 34 °C; time window: 0-4 h after rhamnose induction
Variant,area with substrate ENSYFQS,area with substrate ENGYFQS,area with substrate ENHYFQS,area with substrate ENFYFQS,area with substrate ENYYFQS,area with substrate ENPYFQS,area with substrate ENWYFQS
MGESLFKGPRDYNPISSSICHLTNESDGHTTSLYGIGFGPFIITNKHLFRRNNGTLVVQSLHGVFKVKDTTTLQQHLVDGRDMIIIRMPKDFPPFPQKLKFREPQREERICLVTTNFQTKSMSSMVSDTSCTFKSGDGIFWKHWIQTKDGQCGSPLVSTRDGFIVGIHSASNFTNTNNYFTSVPKNFMELLTNQEAQQWVSGWRLNADSVLWGGHKVFMVKPEEPFQPVKEATQL [P134K],0.06,–,–,–,–,–,–
MGESLFKGPRDYNPISSSICHLTNESDGHTTSLYGIGFGPFIITNKHLFRRNNGTLVVQSLHGVFKVKDTTTLQQHLVDGRDMIIIRMPKDFPPFPQKLKFREPQREERICLVTTNFQTKSMSSMVSDTSCTFPSGDGIFWKHWIQTKDGQCGSPLVSTRPGFIVGIHSASNFTNTNNYFTSVPKNFMELLTNQEAQQWVSGWRLNADSVLWGGHKVFMVKPEEPFQPVKEATQL [D161P],0.0392,0.0623,0.0582,–,–,–,–
MGESLFKGPRDYNPISSSICHLTNESDGHTTSLYGIGFGPFIITNKHLFRRNNGTLVVQSLHGVFKVKDTTTLQQHLVDGRDMIIIRMPKDFPPFPQKLKFREPQREERICLVTTNDQTKSMSSMVSDTSCTFPSGDGIFWKHWIQTKDGQCGSPLVSTRDGFIVGIHSASNFTNTNNYFTSVPKNFMELLTNQEAQQWVSGWRLNADSVLWGGHKVFMVKPEEPFQPVKEATQL [F117D],–,–,0.004,0.0913,0.0716,–,–
MGESLFKGPRDYNPISSSICHLTNESDGHTTSLYGIGFGPFIITNKHLFRRNNGTLVVQSLHGVFKVKDTTTLQQHLVDGRDMIIIRMPKDFPPFPQKLKFREPQREERICLVTTNFQTKSMSSMVSPTSCTFPSGDGIFWKHWIQTKDGQCGSPLVSTRDGFIVGIHSASNFTNTNNYFTSVPKNFMELLTNQEAQQWVSGWRLNADSVLWGGHKVFMVKPEEPFQPVKEATQL [D128P],0.0518,–,–,–,0.059,–,–
MGESLFKGPRDYNPISSSICHLTNESDGHTTSLYGIGFGPFIITNKHLFRRNNGTLVVQSLHGVFKVKDTTTLQQHLVDGRDMIIIRMPKDFPPFPQKLKFREPQREERICLVTTNFQTKSMSSMVSDTSCTFPSGDGIFWKTWIQTKDGQCGSPLVSTRDGFIVGIHSASNFTNTNNYFTSVPKNFMELLTNQEAQQWVSGWRLNADSVLWGGHKVFMVKPEEPFQPVKEATQL [H143T],0.07,–,–,0.0608,–,0.0568,0.0112
MGESLFKGPRDYNPISSSICHLTNESDGHTTSLYGIGFGPFIITNKHLFRRNNGTLVVQSLHGVFKVKDTTTLQQHLVDGRDMIIIRSPKDFPPFPQKLKFREPQREERICLVTTNFQTKSMSSMVSDTSCTFPSGDGIFWKHWIQTKDGQCGSPLVSTRDGFIVGIHSASNFTNTNNYFTSVPKNFMELLTNQEAQQWVSGWRLNADSVLWGGHKVFMVKPEEPFQPVKEATQL [M88S],0.0621,–,–,–,0.0541,–,0.0359
MGESLFKGPRDYNPISSSICHLTNESDGHTTSLYGIGFGPFIITNKHLFRRNNGTLVVQSLHGVFKVKDTTTLQQHLVDGRDMIIIKMPKDFPPFPQKLKFREPQREERICLVTTNFQTKSMSSMVSDTSCTFPSGDGIFWKHWIQTKDGQCGSPLVSTRDGFIVGIHSASNFTNTNNYFTSVPKNFMELLTNQEAQQWVSGWRLNADSVLWGGHKVFMVKPEEPFQPVKEATQL [R87K],0.0609,0.0788,0.0428,–,–,–,–
MGESLFKGPRDYNPISSSICHLTNESDGHTTSLYGIGFGPFIITNKHLFRRNNGTLVVQSLHGVFKVKDTTTLQQHLVDGRDMIIIRMPKDFPPFPQKLKFREPQREERICLVTTNFQTKSMSSMVSDTSCTFPSGDGIFWKHWIQTKDGQCGSPLVSTRDGFIVGIHSMSNFTNTNNYFTSVPKNFMELLTNQEAQQWVSGWRLNADSVLWGGHKVFMVKPEEPFQPVKEATQL [A170M],–,0.0533,–,–,0.0667,–,–
MGESLFKGPRDYNPISSSICHLTNESDGHTTSLYGIGFGPFIITNKHLFRRNNGTLVVQSLHGVFKVKDTTTLQQHLVDGRDMIIIRMPKDFPPFPQKLKYREPQREERICLVTTNFQTKSMSSMVSDTSCTFPSGDGIFWKHWIQTKDGQCGSPLVSTRDGFIVGIHSASNFTNTNNYFTSVPKNFMELLTNQEAQQWVSGWRLNADSVLWGGHKVFMVKPEEPFQPVKEATQL [F101Y],0.05,–,–,–,0.0411,–,–
